Reference: the supplement of paper PMC12632987
Whole data set: some 2,300 sequences, median “median log2 fold change of GCK-ALFA target abundance (FLAG IP / Myc IP barcode read proportion)” near 0.095, cut for the lowest 2% near -0.47. This is one part of the list.

B1: LC3A_3_1405 (protein)
chain: FEEIEKEIIETLKSMGASEEVIEAAKKVVKKLKERGYLEAAKKLLEEVKKLKNASDEILLWFFEEVLKYLEENDDSEEEVVKKIEEFAKIAKNANEIEEL
B2: LC3A_3_1694 (protein)
chain: MEELVAEALAVAEENGWSPETLAALRRLLEALAARGYEEAIKTLLEELKKLKDASSEDLRWMFEELLHLLETEDLDEEELTEAIKEEARVLKEDKEIEEL
B3: LC3A_3_1890 (protein)
chain: LEEEVEETLELLREKGASEETIELFLEAVELLKERGYEEALKTLIEEVRELADAPDEILLDFLKEVLEVLKNEDLSEEELIKRIKELARLARNEAEIEEL
B4: LC3A_28_963 (protein)
chain: SALEKQLEAVLAEAEKAAAAGEAKVFTINVPGTADEADIERVIATIKRIAELLKDVKGSAIIVSVDAGVKQEHIDRLADTLEEIEKKYPNITAILALDED
B5: LC3A_28_1143 (protein)
chain: SPIVEKVKKKIDESYEETKDEKEVFLDVNIEEEITVEEAKEIMDYVEEVVKKLKDKEKISVVVTFDKPVSQEVLNTIADKGEEIEKKFPNVDVIIALPED
B6: LC3A_free_46_2361 (protein)
chain: TKISIDFLAKGKTEEEAKEFAKELEERIKEAAKEAGAEVKIETKIEKDEEGDIFINVDIEIKAPNREIEEKAVQKILDIVDELSKEKNLAAIVSIEYVEP
B7: LC3A_28_895 (protein)
chain: SAAIKKAQAALAEAKAALAAGSTEPLVLEVDAPSTEEDVDKFLELLEEIAKVGDQRPGVAIVIDVDSSVSQENIDKVIDKAEELEKKYPNVTIIIALPED
B8: LC3A_3_1825 (protein)
chain: MEKEKEELIKALKEAGHSEETIEAVEETLKALLEKGYEEAAKTFIELVKEMLDLPSELLLELAKDVKELVESEDLSEEELKEKIKELAKLYRNESEIIEL
B9: LC3A_free_46_2298 (protein)
chain: YIVEIDVDLYGLTKEQAEEFVKELKERLKEIAKKYNVKVKIKVKIEKNEDGTYYVEIDIEVEAETLELAKEVMQEIIDTIEELAEKYGASYIISYEIKEA
B10: LC3A_28_870 (protein)
chain: SAIEKQVKAVKEELEKQAKEGEDAVVTVEITSEMSLEEAVELMNRVLEVAKEYVKKTGLKVTIVIDYDGDQETLNAIADLAEKAEKENPKITVIIALPEE
B11: LC3A_3_1393 (protein)
chain: FEEIKKEAEKTLKEFGRSEEVIKKAKEVLDALAKKGYLEAAKTFLEELKEMKDLSDEILLWFLEEVLRYIEENDASEEEVVKFIKEEARTAKNEGEIEEL
B12: LC3A_28_851 (protein)
chain: SKVDEQIAAARAELEAAAAAGEPVVLELTVKGDFTDEEIDKFIEGLKELAALADSHGGHAIVINIEEGVKDEHIDKIMETAEEIEKKYPKVTVIIALPEN
B13: LC3A_28_1150 (protein)
chain: SAMVEEAKAQIEKDAEEDKNEEEVYLNVTIKKGITLEEAKEIMDHVEEVVEKLKDKKKIYIVVDFEEPISQEVLDLILERSERIEEKFPNVSVIIALHED
B14: LC3A_147_477 (protein)
chain: ARVDIDALVKDEEAAEELVERVREKVEELRERGIEVEVEIEVEQLDPDTWYVRIEIEIEAETEEEEREAADEVVDYIDEFIEENKDRILASIISVEFIEE
B15: LC3A_28_1098 (protein)
chain: MELEESLEEALKKAREAAEAGEEVVITIKVPETATEEDLEKLKETLEEIAEITKDLPRVTVVIDLDGEGAEEKANILGEFAEKLEKKYPNLTVIIALPED
B16: LC3A_16_526 (protein)
chain: KEEAKKTLELLKKAYEALDTDEEAFIAELEKIDPALAAQARAALAQPDAKAKHYELLAQKLEEFLKKYKDELTEEEKAEVENMATAAEVESDLELLKLEE
B17: LC3A_free_46_2353 (protein)
chain: VKAEIDIDLLHKDKEVLEKAVEEIKKAAEEIAKKYGLKVKIEEEISKLPDGSYYAEIKIILEGETEEDLKAAVNELINEIEKIAKKYDVAAIISYEIIKE
B18: LC3A_28_1124 (protein)
chain: SKRKEEWEKAFEEAKELAEKGEYVVAEFKATGEDTEEDVKYLIEILEKAAEYLSKKGQSSILLDIDGKLKPELRDYVISEADKIEKKYPSVNIVIALEED
B19: LC3A_free_39_2230 (protein)
chain: MEEEVEKLIEEVAKESGIDLEYVREKIEEIQKVAELSLEEILEIIKELLKAVKEGADAKEILEEALEIAKELKKEGKSPEEILEEILELIRDYRNLIPLD
B20: LC3A_17_541 (protein)
chain: SEELRRELERLLREARALVERVAPHLPEAAAAARRRLEEAERLLEAGRLREAAELLAELAREMAAAIDATEWPDPLEREVLAMEFEGLAVEAELLLLKLE
B21: LC3A_free_39_2175 (protein)
chain: SEEELEEAEEELLELAEEEGEETLEIVEEILELIEGNLELVKLLVEGLKKIKEEGGDVKEAVEEILEKIKELKEAGKSMEEILEEVKKIIEDFLNLIPLD
B22: LC3A_3_1657 (protein)
chain: MEELLKETLEYLKKKGKSEETLKAVREALEALIEKGYENAAKTFAELLKELAHLSDEILKEMAEEVLELVKTSNLSEEEMTEEIKKIAKTALNESEIIEL
B23: LC3A_3_1646 (protein)
chain: PEEKVKELEEELKKAGHNEETIEAFRETAEALIEKGYYEALEVLIEEVRKLKDLPSDILLAMLEDILETVKTEDLSEEELIEKIKEEARIARSEGEIIEL
B24: LC3A_147_440 (protein)
chain: YRVDVDIDIIVENAEEEVLKRFEELKKELEAKGYKVELEIEVEELEEGVSFINIRITIEAETREEAEAAAQMVVDAVDELEKELKDKILASIISVDIEEL
B25: LC3A_3_1720 (protein)
chain: AEEIKEEIIKTLKEQGRSEETIEAAEKLANALIEKGYLNALKTLLELLKEMKDVSDEVLLEMLEDLLYIVENENLSEEELIKKIKEEAEVARKEEEIIEL
B26: LC3A_free_39_2184 (protein)
chain: SEEEREKAVEELLELAREEGEETEELARKLLEILGDDYERVKELLELVKEAKEEGVDLKEMFKEALELAEKLQKEGKSQEEIAEEVLETIRDHINLIPID
B27: LC3A_3_1840 (protein)
chain: LDEEVEAALAALRAAGHSEEALAAVRAAAEALRARGYDEALRTFVELMRRMLHLPSELVRALAEDVLRLVREEDLSEAELTARIRELARLYENEAEIEEL
B28: LC3A_28_1054 (protein)
chain: SKVDEEIKKALEEAKELAAKGEEALINITINEDDTEEDVEKKLETIKEIAEINKDLPATSIIVDVDNKNKEEVTKKFAELGDELEKKYPNVTVIIALSEE
B29: LC3A_28_1221 (protein)
chain: MKVEEQIEKAREQAEAARARGEEALIEVEIDESTTVEDARRIMEALEEIVAEAADLPAISIVVNVDEGVSQEVIDEIAERGERIEERFPNVTVIIALSEE

biological target: MAP1LC3A, Q9H492; assay: median log2 fold change of GCK-ALFA target abundance (FLAG IP / Myc IP barcode read proportion) (log2 ratio); each designed protein is fused to an ALFA-tag nanobody in HEK293 cells to bring the named protein to FLAG-tagged glucokinase (GCK); Myc marks an untargeted standard; higher = target protein stabilised (more abundant); conditions: target protein: 3xFLAG-MCP-GCK-ALFA reporter; HEK293 landing pad (RPLP)
Outline: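 An ALFA-nanobody-fused binder library was recombined into HEK293 landing-pad cells and induced with 2 μg mL^−1 doxycycline. Cells were transfected with a plasmid expressing a FLAG-tagged target and a Myc-tagged standard. After 48 h, lysates underwent anti-FLAG and anti-Myc immunoprecipitation, and circular RNA barcodes were reverse transcribed, amplified and sequenced. Target abundance is the per-binder median log2 ratio of FLAG to Myc barcode read proportions. Barcodes needed ≥10^−7 proportion in both replicates, binders ≥3 barcodes per replicate, and a 10^−6 pseudocount was added; the two replicates were pooled.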

Row | Binder | median log2 fold change
1 | B1 | 0.273
2 | B2 | 0.235
3 | B3 | 0.228
4 | B4 | 0.182
5 | B5 | 0.379
6 | B6 | 0.0603
7 | B7 | -0.305
8 | B8 | 0.422
9 | B9 | -0.318
10 | B10 | -0.164
11 | B11 | 0.556
12 | B12 | -0.464
13 | B13 | -0.157
14 | B14 | -0.34
15 | B15 | 0.224
16 | B16 | 0.154
17 | B17 | -0.0249
18 | B18 | -0.453
19 | B19 | 0.218
20 | B20 | 0.0466
21 | B21 | 0.302
22 | B22 | 0.182
23 | B23 | 0.127
24 | B24 | -0.182
25 | B25 | 0.238
26 | B26 | 0.251
27 | B27 | 0.299
28 | B28 | -0.207
29 | B29 | 0.109
